According to patent publication US20190359693A1:

B1: FM1W4 (Fc fusion)
chain: QVQLVESGGGVVQPGGSLRLSCAASISIFDIYAMDWYRQAPGKQRELVAVSFRDGSTYYADSVKGRFTISRDNSKNTLYLQMNSLRAEDTAVYYCHVSLYRDPLGVAGGIGVYWGQGTLVTVSSGGGGSGGGGSEVQLLESGGGLVQPGGSLRLSCAASGRTYAMGWFRQAPGKEREFVAAINALGTRTYYADSVKGRFTISRDNSKNTLYLQMNSLRAEDTAVYYCTAQGQWRAAPVAVAAEYEFWGQGTLVTVSSGGGGSGGGGSEVQLLESGGGLVQPGGSLRLSCAASGFTLENKAIGWFRQAPGKEREGVLCISKSGSWTYYADSVKGRFTISRDNSKNTVYLQMNSLRPEDTAVYYCATTTAGGGLCWDGTTFSRLASSWGQGTLVTVSSGGGGSGGGGSEVQLVESGGGLVQPGGSLRLSCAASGFTFSTSWMYWLRQAPGKGLEWVSVINTDGGTYYADSVKGRFTISRDNSKNTLYLQMNSLRAEDTAVYYCAKDWGGPEPTRGQGTLVTVSS[gap - human IgG1 Fc]
B2: FM1W5 (Fc fusion)
chain: EVQLLESGGGLVQPGGSLRLSCAASGFTLENKAIGWFRQAPGKEREGVLCISKSGSWTYYADSVKGRFTISRDNSKNTVYLQMNSLRPEDTAVYYCATTTAGGGLCWDGTTFSRLASSWGQGTLVTVSSGGGGSGGGGSQVQLVESGGGVVQPGGSLRLSCAASISIFDIYAMDWYRQAPGKQRELVAVSFRDGSTYYADSVKGRFTISRDNSKNTLYLQMNSLRAEDTAVYYCHVSLYRDPLGVAGGIGVYWGQGTLVTVSSGGGGSGGGGSEVQLVESGGGLVQPGGSLRLSCAASGFTFSTSWMYWLRQAPGKGLEWVSVINTDGGTYYADSVKGRFTISRDNSKNTLYLQMNSLRAEDTAVYYCAKDWGGPEPTRGQGTLVTVSSGGGGSGGGGSEVQLLESGGGLVQPGGSLRLSCAASGRTYAMGWFRQAPGKEREFVAAINALGTRTYYADSVKGRFTISRDNSKNTLYLQMNSLRAEDTAVYYCTAQGQWRAAPVAVAAEYEFWGQGTLVTVSS[gap - human IgG1 Fc]
B3: FM1W6 (Fc fusion)
chain: QVQLVESGGGVVQPGGSLRLSCAASISIFDIYAMDWYRQAPGKQRELVAVSFRDGSTYYADSVKGRFTISRDNSKNTLYLQMNSLRAEDTAVYYCHVSLYRDPLGVAGGIGVYWGQGTLVTVSSGGGGSGGGGSEVQLVESGGGLVQPGGSLRLSCAASGRTLSIYSMGWFRQAPGKEREFVATIGWNSGRTFYPDSVKGRFTISRDNSKNTLYLQMNSLRAEDTAVYYCAAAKGPLRLSSQADYWGQGTLVTVSSGGGGSGGGGSEVQLLESGGGLVQPGGSLRLSCAASGFTLENKAIGWFRQAPGKEREGVLCISKSGSWTYYADSVKGRFTISRDNSKNTVYLQMNSLRPEDTAVYYCATTTAGGGLCWDGTTFSRLASSWGQGTLVTVSSGGGGSGGGGSEVQLVESGGGLVQPGGSLRLSCAASGFTFSTSWMYWLRQAPGKGLEWVSVINTDGGTYYADSVKGRFTISRDNSKNTLYLQMNSLRAEDTAVYYCAKDWGGPEPTRGQGTLVTVSS[gap - human IgG1 Fc]

molecular target: hemagglutinin (HA) of influenza A/Brisbane/10/07 (H3N2) (influenza A virus A/Brisbane/10/07 (H3N2)); test: cell-based or functional assay

Binder | Average neutralization titers [nM]
B1 | 40
B2 | 16
B3 | 16

molecular target: hemagglutinin (HA) of influenza A/Vietnam/1194/04 (H5N1) (influenza A virus A/Vietnam/1194/04 (H5N1)); test: cell-based or functional assay

Binder | Average neutralization titers [nM]
B1 | 32
B2 | 8
B3 | 32

molecular target: hemagglutinin (HA) of influenza B/Brisbane/60/08 (Victoria lineage) (influenza B virus B/Brisbane/60/08); test: cell-based or functional assay

Binder | Average neutralization titers [nM]
B1 | 8
B2 | 10
B3 | 8

molecular target: hemagglutinin (HA) of influenza B/Harbin/7/94 (Yamagata lineage) (influenza B virus B/Harbin/7/94); test: cell-based or functional assay

Binder | Average neutralization titers [nM]
B1 | 6
B2 | 10
B3 | 6

molecular target: hemagglutinin (HA) of influenza A/New Caledonia/20/99 (H1N1) (influenza A virus A/New Caledonia/20/99 (H1N1)); test: cell-based or functional assay

Binder | Average neutralization titers [nM]
B1 | 32
B2 | 6
B3 | 40
